Laboratory results reported in the supplement of paper PMC3334620.
In all, about 33,000 sequences were measured (“E-score (-0.5 to 0.5)”: median about -0.035, highest 2% from about 0.34 on). Some of the results follow.

What follows are sequences tested against T1, Mot3 (UniProt P54785) (assay: PBM E-score (8-mer binding enrichment) (E-score (-0.5 to 0.5)); higher = stronger / more preferred TF binding; most listed sequences are background and not binding sites). Details: protein concentration: 200 nM; construct: GST-full length.
T1 sequence: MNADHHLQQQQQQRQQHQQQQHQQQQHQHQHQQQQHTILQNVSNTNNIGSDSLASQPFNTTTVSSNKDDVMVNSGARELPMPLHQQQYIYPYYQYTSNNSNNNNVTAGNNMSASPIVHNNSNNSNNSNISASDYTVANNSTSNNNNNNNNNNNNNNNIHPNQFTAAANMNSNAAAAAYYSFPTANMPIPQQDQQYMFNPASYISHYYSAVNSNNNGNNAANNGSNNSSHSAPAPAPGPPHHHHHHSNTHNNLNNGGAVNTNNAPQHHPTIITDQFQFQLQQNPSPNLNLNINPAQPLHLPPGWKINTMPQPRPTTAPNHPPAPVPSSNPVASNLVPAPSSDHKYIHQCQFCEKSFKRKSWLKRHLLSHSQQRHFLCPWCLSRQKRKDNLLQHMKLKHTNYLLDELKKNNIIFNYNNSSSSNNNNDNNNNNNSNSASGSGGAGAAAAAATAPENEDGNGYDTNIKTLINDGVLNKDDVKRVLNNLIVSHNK
Protocol: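 Universal 'all 10-mer' protein binding microarrays (Agilent AMADID 015681) probed with GST-tagged S. cerevisiae TFs (full-length or DBD) made by in vitro transcription/translation (PURExpress), about 100-200 nM. Bound TF was detected with fluorescent anti-GST. Each ungapped 8-mer (which stands for itself and its reverse complement) is scored by the PBM enrichment score (E-score), a modified Wilcoxon-Mann-Whitney statistic from -0.5 to +0.5, computed with the Universal PBM Analysis Suite. Scale: above 0.35 generally sequence-specific binding.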

| Sequence | PBM E-score |
| --- | --- |
| ATTGGACC | -0.249 |
| ATGGAATC | 0.00297 |
| ACGTGCGA | 0.0988 |
| CTCACCAA | -0.0942 |
| ATCAAGAG | -0.11 |
| ATTTGTCC | -0.0253 |
| CAGCACCC | -0.27 |
| GCTGGCAC | -0.0558 |
| GTTCGCGA | 0.0261 |
| ACTAAGAC | 0.0358 |
| ACCGAGAC | 0.0166 |
| AGTTATAC | 0.0649 |
| CTGTCCCA | -0.151 |
| CTCGTCAA | -0.084 |
| GAGCCGCC | -0.373 |
| GGTCAACC | -0.242 |
| CCTCAGCC | -0.248 |
| AGATTACA | 0.354 |
| GCTAAACC | -0.146 |
| AGCTTTAA | 0.058 |
| GAATCGTA | -0.0105 |
| GAGAGCAA | -0.137 |
| GAGGTGAA | -0.101 |
| CCAAAGAG | -0.0937 |
| TCGTATAA | 0.0312 |

| Sequence | PBM E-score |
| --- | --- |
| AAATAACC | -0.0353 |
| AATTTTGG | -0.0957 |
| ATACGCCA | 0.0272 |
| CACGCCCA | 0.0185 |
| CGGCGGGA | -0.304 |
| AAGGAATA | 0.0281 |
| AGAGGAGG | -0.282 |
| CAACCGTG | 0.0805 |
| CCCACATC | -0.242 |
| ACGAGTAC | 0.205 |
| GCATGTCA | 0.26 |
| CCCTCCGG | -0.28 |
| GGCCGAAC | -0.239 |
| GCTTCAAC | -0.0432 |
| CGTCGAAA | 0.0523 |
| GGAGGGTA | -0.199 |
| CCCTACAA | 0.112 |
| ACCACCTC | -0.128 |
| TGGCCAAA | -0.0912 |
| CAGTTTCC | 0.125 |
| GATTCGCC | -0.232 |
| GATCGTAC | -0.18 |
| AAGGTCCG | -0.0866 |
| CGCCAGTA | -0.122 |
| CTAGCTTC | -0.187 |

| Sequence | PBM E-score |
| --- | --- |
| AACATTTG | 0.125 |
| ACATCTCT | 0.0934 |
| AAAACGCG | 0.219 |
| GGCAAAAA | 0.259 |
| AGTCGTCA | -0.00648 |
| AGTAAGTC | -0.105 |
| CCAATCTA | -0.168 |
| AATCCCGC | -0.213 |
| TACCAACA | 0.307 |
| TCTGTGCA | 0.00117 |
| TGGAGAAA | -0.234 |
| GCCTGACA | 0.109 |
| CTATCTAC | 0.166 |
| CAACCTCG | 0.0428 |
| CGAATACG | 0.0842 |
| ACCGGAGC | -0.157 |
| CGGCATCC | -0.0227 |
| AAGCAGGT | 0.0496 |
| ACGCCACA | -0.0319 |
| ACCTCCCT | -0.118 |
| CTTCCCTC | -0.228 |
| CTGTAAAC | 0.295 |
| TAGAGGGA | -0.0707 |
| CGTATACC | -0.17 |
| GTGTGATA | 0.189 |

| Sequence | PBM E-score |
| --- | --- |
| AGGTTTAT | 0.0048 |
| GTGCAACA | -0.0437 |
| TACCCTAA | 0.141 |
| AGTAGAAA | 0.0915 |
| CAACTTAA | 0.137 |
| CCTGTGCG | 0.185 |
| CGATGTTA | 0.313 |
| GAAGTAAC | 0.0663 |
| CGGGGAAA | -0.0452 |
| TGCCATAA | -0.112 |
| CACTTACC | 0.212 |
| GTCTGGAA | -0.273 |
| GACGTTAC | 0.127 |
| AAGGAGCG | -0.182 |
| GCGACATA | -0.111 |
| AGGGTACC | 0.0598 |
| ACGGATCC | -0.172 |
| GATATGCA | -0.0435 |
| CAATGTGC | -0.00357 |
| ATGATCGA | 0.0623 |
| AAGATGGC | -0.247 |
| AATTCACC | 0.07 |
| GATATCCC | -0.12 |
| AGGCACGG | 0.491 |
| GCCTACCA | 0.174 |

| Sequence | PBM E-score |
| --- | --- |
| CACACCTG | 0.0345 |
| ATAATGAG | -0.22 |
| CTCAGTTC | -0.0107 |
| CATGTTGA | 0.401 |
| GCCGTCTA | -0.266 |
| AGATTGAT | -0.055 |
| GCATAGTA | 0.14 |
| AAGACGTG | 0.0703 |
| TCTTCAAA | -0.0517 |
| ATCCCTTA | -0.116 |
| ATCTGTCG | -0.0996 |
| CCATGCTA | -0.00877 |
| GCTAACAA | 0.161 |
| GGCGTGCA | -0.243 |
| AAGTCTTA | 0.0422 |
| GTAACAAC | 0.231 |
| AACCAGTA | -0.153 |
| CTAACAAA | 0.131 |
| TACACACA | 0.385 |
| GTGCATGA | 0.0603 |
| ACCATAGA | -0.24 |
| CTCATCGC | -0.107 |
| CGTCGATC | 0.0501 |
| AAACTGAT | -0.029 |
| GAAAATTC | 0.00977 |

| Sequence | PBM E-score |
| --- | --- |
| TCCTCGAA | 0.00615 |
| ACCTCGGC | -0.229 |
| ACAGTGCC | 0.169 |
| GACTTAGC | -0.246 |
| ACTTGTAG | 0.0499 |
| AGACGCAT | -0.0845 |
| CCATAAAG | -0.124 |
| ATCTTGCC | 0.159 |
| CACAATCA | 0.0206 |
| GGATACAC | 0.027 |
| ATCCGCAC | -0.184 |
| CGTTCGCC | -0.0621 |
| CAGGGGAA | -0.0748 |
| CTAGTTTC | -0.178 |
| GAACCGCC | -0.0754 |
| TCCCCGGA | -0.199 |
| CGTAAGGC | 0.256 |
| CTGATAAC | 0.106 |
| ATCTAAAA | -0.0198 |
| ACCCGAAT | -0.0891 |
| CGCACTCC | -0.223 |
| AATTTTTC | 0.0527 |
| TAATACTA | 0.21 |
| ACTGACTG | -0.189 |
| ACGGAGCC | -0.0964 |

| Sequence | PBM E-score |
| --- | --- |
| AGGCGTAC | 0.213 |
| CCTAATGC | -0.1 |
| AACGGACA | -0.00364 |
| GCTCGCTA | -0.109 |
| AGTACCAT | -0.0991 |
| AGTGAGAA | -0.0879 |
| TGGAATAA | -0.0462 |
| ATAGGAGG | -0.043 |
| ACAACCGA | 0.0451 |
| CGACCGTC | -0.214 |
| ATTATGCC | 0.134 |
| AGCTACCC | -0.136 |
| CAGACATG | 0.106 |
| ATTGAAGA | -0.0216 |
| ATCCTCAC | -0.105 |
| AAACCTCG | -0.21 |
| ACAGTCCT | -0.155 |
| AATTCACT | 0.111 |
| AGCGCGCG | -0.0457 |
| GAGATTAC | 0.0745 |
| CGCACGGA | -0.207 |
| TCGCACCA | -0.0591 |
